This is one part of the list. Repeats are few or missing, and single values can be far off.
What was measured:
Assay in all cases: cell count relative to DMSO control; melanoma cells; higher = more viable cells
Details in all cases: library dose: low library concentration; 72 h
[1] = tested on: MZ2-MEL
[2] = tested on: MeWo
[3] = tested on: RPMI7951
[4] = tested on: RVH-421
[5] = tested on: SkMel28
[6] = tested on: SkMel30
[7] = tested on: SkMel5
[8] = tested on: UACC257
[9] = tested on: UACC62
[10] = tested on: SkMel2
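Note: cell number obtained by counting DAPI-stained nuclei in high-throughput microscope images with image analysis software, screen run in 1,536-well plates.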

| Compound | cell count [1] [%] | cell count [2] [%] | cell count [3] [%] | cell count [4] [%] | cell count [5] [%] | cell count [6] [%] | cell count [7] [%] | cell count [8] [%] | cell count [9] [%] | cell count [10] [%] |
| --- | --- | --- | --- | --- | --- | --- | --- | --- | --- | --- |
| CO[C@H]1C[C@@H]2CC[C@@H](C)[C@@](O)(O2)C(=O)C(=O)N2CCCC[C@H]2C(=O)O[C@H]([C@H](C)C[C@@H]2CC[C@@H](OCCO)[C@H](OC)C2)CC(=O)[C@H](C)/C=C(\C)[C@@H](O)[C@@H](OC)C(=O)[C@H](C)C[C@H](C)/C=C/C=C/C=C/1C [everolimus] + C[C@@H]1CCN(C(=O)CC#N)C[C@@H]1N(C)c1ncnc2[nH]ccc12 [CP690550] (first compound 0.02 µM, partner dose 1 µM) | 75.5 | 87 | 87.4 | 78.3 | 66.1 | 54.7 | 112 | 51.4 | 73 | – |
| CO[C@H]1C[C@@H]2CC[C@@H](C)[C@@](O)(O2)C(=O)C(=O)N2CCCC[C@H]2C(=O)O[C@H]([C@H](C)C[C@@H]2CC[C@@H](OCCO)[C@H](OC)C2)CC(=O)[C@H](C)/C=C(\C)[C@@H](O)[C@@H](OC)C(=O)[C@H](C)C[C@H](C)/C=C/C=C/C=C/1C [everolimus] + COc1cc2c(Oc3ccc4[nH]c(C)cc4c3F)ncnc2cc1OCCCN1CCCC1 [cediranib] (first compound 0.02 µM, partner dose 0.4 µM) | 78.4 | 75.9 | 68.7 | 82.1 | 51.2 | 66.3 | 95.1 | 53.5 | 74.5 | – |
| CO[C@H]1C[C@@H]2CC[C@@H](C)[C@@](O)(O2)C(=O)C(=O)N2CCCC[C@H]2C(=O)O[C@H]([C@H](C)C[C@@H]2CC[C@@H](OCCO)[C@H](OC)C2)CC(=O)[C@H](C)/C=C(\C)[C@@H](O)[C@@H](OC)C(=O)[C@H](C)C[C@H](C)/C=C/C=C/C=C/1C [everolimus] + O=C(O)C(=O)Nc1sc2c(c1C(=O)O)CCNC2 [TCS401] (first compound 0.02 µM, partner dose 1.66667 µM) | 85.7 | 82.2 | 79.7 | 89.1 | 62.8 | 74.9 | 94.6 | 65.5 | 59.6 | – |
| CO[C@H]1C[C@@H]2CC[C@@H](C)[C@@](O)(O2)C(=O)C(=O)N2CCCC[C@H]2C(=O)O[C@H]([C@H](C)C[C@@H]2CC[C@@H](OCCO)[C@H](OC)C2)CC(=O)[C@H](C)/C=C(\C)[C@@H](O)[C@@H](OC)C(=O)[C@H](C)C[C@H](C)/C=C/C=C/C=C/1C [everolimus] + COc1cc2ncnc(Nc3ccc(Oc4ccccc4)cc3)c2cc1OC [SrcI1] (first compound 0.02 µM, partner dose 2 µM) | 87.5 | 76 | 85.3 | 89.8 | 63.7 | 71.1 | 121 | 70.2 | 75.1 | – |
| CO[C@H]1C[C@@H]2CC[C@@H](C)[C@@](O)(O2)C(=O)C(=O)N2CCCC[C@H]2C(=O)O[C@H]([C@H](C)C[C@@H]2CC[C@@H](OCCO)[C@H](OC)C2)CC(=O)[C@H](C)/C=C(\C)[C@@H](O)[C@@H](OC)C(=O)[C@H](C)C[C@H](C)/C=C/C=C/C=C/1C [everolimus] + O=C1NC(=O)/C(=C/c2ccc(-c3ccc(F)cc3O)o2)S1 [AS252424] (first compound 0.02 µM, partner dose 1 µM) | 78.6 | 63.8 | 67.6 | 90 | 56.4 | 59 | 116 | 56.1 | 65 | – |
| CO[C@H]1C[C@@H]2CC[C@@H](C)[C@@](O)(O2)C(=O)C(=O)N2CCCC[C@H]2C(=O)O[C@H]([C@H](C)C[C@@H]2CC[C@@H](OCCO)[C@H](OC)C2)CC(=O)[C@H](C)/C=C(\C)[C@@H](O)[C@@H](OC)C(=O)[C@H](C)C[C@H](C)/C=C/C=C/C=C/1C [everolimus] + Cn1c(Nc2ccc(C(F)(F)F)cc2)nc2cc(Oc3ccnc(-c4ncc(C(F)(F)F)[nH]4)c3)ccc21 [CHIR265] (first compound 0.02 µM, partner dose 0.08 µM) | 50.9 | 60.2 | 58.1 | 69.7 | 36.9 | 40.8 | – | – | 45.4 | – |
| CO[C@H]1C[C@@H]2CC[C@@H](C)[C@@](O)(O2)C(=O)C(=O)N2CCCC[C@H]2C(=O)O[C@H]([C@H](C)C[C@@H]2CC[C@@H](OCCO)[C@H](OC)C2)CC(=O)[C@H](C)/C=C(\C)[C@@H](O)[C@@H](OC)C(=O)[C@H](C)C[C@H](C)/C=C/C=C/C=C/1C [everolimus] + C=C(c1ccc(C(=O)O)cc1)c1cc2c(cc1C)C(C)(C)CCC2(C)C [Bexarotene] (first compound 0.02 µM, partner dose 2 µM) | 81.4 | 64.8 | 77.1 | 76.5 | 37 | 62.4 | – | – | 58.7 | – |
| CO[C@H]1C[C@@H]2CC[C@@H](C)[C@@](O)(O2)C(=O)C(=O)N2CCCC[C@H]2C(=O)O[C@H]([C@H](C)C[C@@H]2CC[C@@H](OCCO)[C@H](OC)C2)CC(=O)[C@H](C)/C=C(\C)[C@@H](O)[C@@H](OC)C(=O)[C@H](C)C[C@H](C)/C=C/C=C/C=C/1C [everolimus] + CN(C)S(=O)(=O)c1ccc2c(c1)/C(=C/c1cc3c([nH]1)CCCC3)C(=O)N2 [SU6656] (first compound 0.02 µM, partner dose 0.4 µM) | – | 68.3 | 104 | 102 | 55.3 | 66 | 85.1 | 71.7 | 66.1 | – |
| CC(=O)O[C@@]12CO[C@@H]1C[C@H](O)[C@@]1(C)C(=O)[C@H](O)C3=C(C)[C@@H](OC(=O)[C@H](O)[C@@H](NC(=O)OC(C)(C)C)c4ccccc4)C[C@@](O)([C@@H](OC(=O)c4ccccc4)[C@H]21)C3(C)C [Docetaxel] + Cc1cc([N+](=O)[O-])ccc1NS(=O)(=O)c1cc(Cl)ccc1Cl [FH535] (first compound 0.0001 µM, partner dose 1 µM) | – | 50.4 | 39.3 | 90.5 | 38.6 | 50 | 85.3 | 43.5 | 42 | 49.2 |
| CO[C@H]1C[C@@H]2CC[C@@H](C)[C@@](O)(O2)C(=O)C(=O)N2CCCC[C@H]2C(=O)O[C@H]([C@H](C)C[C@@H]2CC[C@@H](OCCO)[C@H](OC)C2)CC(=O)[C@H](C)/C=C(\C)[C@@H](O)[C@@H](OC)C(=O)[C@H](C)C[C@H](C)/C=C/C=C/C=C/1C [everolimus] + OCc1c[nH]c2ccccc12 [Indole-3-carbinol] (first compound 0.02 µM, partner dose 0.8 µM) | 79.5 | 69.7 | 70.8 | 81.4 | 61.3 | 63.4 | – | – | 59.3 | – |
| Nc1ccn([C@@H]2O[C@H](CO)[C@@H](O)C2(F)F)c(=O)n1 [gemcitabine] + C#Cc1cccc(Nc2ncnc3cc(OCCOC)c(OCCOC)cc23)c1 [erlotinib] (first compound 0.0004 µM, partner dose 0.8 µM) | – | 87.6 | 78.5 | 103 | 101 | 94.1 | – | – | 88.2 | 112 |
| CO[C@H]1C[C@@H]2CC[C@@H](C)[C@@](O)(O2)C(=O)C(=O)N2CCCC[C@H]2C(=O)O[C@H]([C@H](C)C[C@@H]2CC[C@@H](OCCO)[C@H](OC)C2)CC(=O)[C@H](C)/C=C(\C)[C@@H](O)[C@@H](OC)C(=O)[C@H](C)C[C@H](C)/C=C/C=C/C=C/1C [everolimus] + COCC[n+]1c2c(n(Cc3cnccn3)c1C)C(=O)c1ccccc1C2=O [YM155] (first compound 0.02 µM, partner dose 0.0004 µM) | – | 69.9 | 89.2 | 85.5 | 66.2 | 70.7 | – | – | 66.7 | – |
| Nc1ncn([C@H]2C[C@H](O)[C@@H](CO)O2)c(=O)n1 [decitabine] + O=C(O)C(=O)Nc1sc2c(c1C(=O)O)CCNC2 [TCS401] (first compound 0.1 µM, partner dose 1.66667 µM) | – | 103 | 89.4 | 85 | 97 | 88.8 | 95.8 | 92.6 | 70 | – |
| CO[C@H]1C[C@@H]2CC[C@@H](C)[C@@](O)(O2)C(=O)C(=O)N2CCCC[C@H]2C(=O)O[C@H]([C@H](C)C[C@@H]2CC[C@@H](OCCO)[C@H](OC)C2)CC(=O)[C@H](C)/C=C(\C)[C@@H](O)[C@@H](OC)C(=O)[C@H](C)C[C@H](C)/C=C/C=C/C=C/1C [everolimus] + Cc1nc(Nc2ncc(C(=O)Nc3c(C)cccc3Cl)s2)cc(N2CCN(CCO)CC2)n1 [dasatanib] (first compound 0.02 µM, partner dose 0.004 µM) | 63.1 | 68.3 | 50.1 | 83.5 | 55 | 57.7 | – | – | 60.4 | – |
| CO[C@H]1C[C@@H]2CC[C@@H](C)[C@@](O)(O2)C(=O)C(=O)N2CCCC[C@H]2C(=O)O[C@H]([C@H](C)C[C@@H]2CC[C@@H](OCCO)[C@H](OC)C2)CC(=O)[C@H](C)/C=C(\C)[C@@H](O)[C@@H](OC)C(=O)[C@H](C)C[C@H](C)/C=C/C=C/C=C/1C [everolimus] + O=C(O)c1ccc2c(c1)nc(Nc1cccc(Cl)c1)c1ccncc12 [CX4945] (first compound 0.02 µM, partner dose 0.4 µM) | 76.3 | 69.3 | 67.6 | 83.5 | 63.7 | 67 | – | – | 63.9 | – |
| CO[C@H]1C[C@@H]2CC[C@@H](C)[C@@](O)(O2)C(=O)C(=O)N2CCCC[C@H]2C(=O)O[C@H]([C@H](C)C[C@@H]2CC[C@@H](OCCO)[C@H](OC)C2)CC(=O)[C@H](C)/C=C(\C)[C@@H](O)[C@@H](OC)C(=O)[C@H](C)C[C@H](C)/C=C/C=C/C=C/1C [everolimus] + Nc1ccn([C@@H]2O[C@H](CO)[C@@H](O)C2(F)F)c(=O)n1 [gemcitabine] (first compound 0.02 µM, partner dose 0.0004 µM) | 66.1 | 68 | 91.4 | 68.4 | 55.1 | 68.8 | – | – | 67.3 | – |
